Measurements reported in PubChem BioAssay AID463173 (ICCB-Longwood Screening Facility, Harvard Medical School, 2010).
Out of some 52,000 compounds screened, about 1,700 (3.3%) were called active. Rule as the data show it: active = survival mostly below about 52% (no sharp cut-off); inactive = mostly above about 56%. This is one part of the list.

tested on: Wild type; assay: S. aureus survival, RN4220 and DeltatarO strains – OD600, teichoic acid synthesis inhibitors, primary screen (AID 463173); conditions: S. aureus RN4220 wild type/DeltatarO growth, OD600, 18 h, hits give low values, screened at 18.75 µg/mL (by protocol)

| SMILES | survival |
| --- | --- |
| O=C(O)c1nnc(Cl)c2ccccc12 | inactive: 90% |
| O=C(NCCCN1CCN(c2ccc(F)cc2)CC1)c1ccc2nc(Cc3ccccc3)oc2c1 | inactive: 82% |
| CCOc1ccc(CN2CCc3nc(Nc4ccc(OC)cc4OC)ncc3C2)cc1 | inactive: 71% |
| Cc1ccc2sc(NC(=O)c3ccc4c(c3)OCCO4)nc2c1C | inactive: 69% |
| COc1ccc2c(c1)c1c(c(=O)n(-c3ccc(F)c(Cl)c3)c(=O)n1Cc1ccccc1C)n2C | inactive: 73% |
| COc1ccc(NC(=O)c2c(-c3ccc(C)cc3)nnc3ccccc23)c(OC)c1 | inactive: 71% |
| CCN(CC)c1nc2ccccc2nc1C(=O)Nc1cccc(C(C)=O)c1 | inactive: 102% |
| COc1ccc2c(c1)c1c(c(=O)n(CCc3ccccc3)c(=O)n1Cc1ccc(F)cc1)n2C | active: 1% |
| CCN(CC)CCCNC(=O)c1nn(C)c2c1CS(=O)(=O)c1ccccc1-2 | inactive: 84% |
| Cc1ccccc1Cn1c(CN2CCC(C(=O)NCCc3ccccc3)CC2)cc2ccccc21 | inactive: 110% |
| CCC(=O)Nc1cccc(C(=O)OCc2cc(=O)n3nc(CC)sc3n2)c1 | inactive: 72% |
| CCSC1=NC2(CCN(C(=O)NC3CCCCC3)CC2)N=C1c1ccc(Cl)cc1 | inactive: 97% |
| CCn1c(O)c(/C=C/c2nc3ccccc3n2CC)sc1=S | inactive: 108% |
| O=c1[nH]cnc2c1[nH]c1ccccc12 | inactive: 106% |
| Cc1ccc(NC(=O)c2sc3nc4c(cc3c2N)CN(Cc2ccccc2)CC4)cc1 | inactive: 93% |
| Nc1ccc(N2CCCC2)cc1 | inactive: 115% |
| CCN1C(=O)c2ccccc2Sc2ccc(NC(=O)c3ccc(Cl)cc3)cc21 | inactive: 89% |
| Cc1oc2ncn(C)c(=O)c2c1C(=O)N1CCN(c2ccccc2F)CC1 | inactive: 86% |
| CCc1nn(Cc2ccc(Cl)cc2)c(=O)c2cc3cc(C)ccc3n12 | inactive: 86% |
| Cc1cc(C)nc(NC(C)(C)C(=O)O)n1 | inactive: 104% |
| CCc1cc2c(NCCN3CCCCC3)ncnc2s1 | inactive: 106% |
| O=C(CSc1ncc2c(n1)-c1ccc(Cl)cc1N(Cc1ccccc1)S2(=O)=O)Nc1ccc(F)c(F)c1 | inactive: 129% |
| COc1ccc2c(Sc3ccccc3)c(C(=O)NCCc3ccc(Cl)cc3)[nH]c2c1 | inactive: 117% |

| SMILES | survival |
| --- | --- |
| O=C(CN1C(=O)COc2ccc(S(=O)(=O)N3CCCC3)cc21)N1CCN(c2ccccc2)CC1 | inactive: 89% |
| CCN1CCN(CCCNC(=O)c2cc3c(s2)-c2ccccc2OC3)CC1 | inactive: 84% |
| COc1cc(OC)cc(C(=O)Nc2cc(-c3nc4cc(Cl)ccc4o3)ccc2Cl)c1 | inactive: 67% |
| CCOC(=O)C1CCCN(CC(=O)N2CCCc3c2c(=O)oc2ccc(OCc4ccccc4)cc32)C1 (stereo not given) | inactive: 103% |
| Cc1cccc2cc(CN(CCO)S(=O)(=O)c3ccc(Cl)cc3)c(=O)[nH]c12 | inactive: 112% |
| CCc1ccc(NC(=O)c2sc3ncnc(N(C)C4CCCCC4)c3c2C)cc1 | inactive: 95% |
| O=C(NCc1ccc2c(c1)CCN2C(=O)c1ccccc1)c1cc2ccccc2[nH]1 | active: 1% |
| CN1CCc2nc3sc(C(=O)c4ccc5c(c4)OCO5)c(N)c3cc2C1 | inactive: 116% |
| CC1(C)Cc2c(c(N3CCOCC3)nc3oc(C(=O)c4ccccc4)c(N)c23)CO1 | inactive: 107% |
| CCOc1ccc(C2C(C(N)=O)=C(C)Nc3nc(SCc4ccccc4)nn32)cc1 (stereo not given) | inactive: 89% |
| COc1ccc(CNC(=O)Nc2ccc3c(c2)N(C)C(=O)c2ccccc2S3)cc1 | inactive: 113% |
| CC(=O)C1=C(c2ccc(C)cc2)N(C(C)=O)n2c(nnc2C2CCCCC2)S1 | inactive: 73% |
| CCCCNC(=O)CSc1nc2ccccc2nc1Cc1ccc(C)cc1 | inactive: 72% |
| COc1ccc(-c2nnc(SCc3cc(=O)c4cc(C)cc(C)c4[nH]3)n2C)cc1 | inactive: 126% |
| COc1cccc(CN2C(=O)c3ccccc3Sc3ccc(C(=O)N(C)Cc4ccccc4)cc32)c1 | inactive: 93% |
| O=C(NCc1ccco1)C12CC3CC(CC(C3)C1)C2 | inactive: 103% |
| COc1cccc2cc(-c3nc(Nc4cccc(C)c4)sc3C)c(=O)oc12 | inactive: 68% |
| O=C(c1cccs1)c1cn(CCOc2ccccc2F)c2ccccc12 | inactive: 75% |
| COc1cccc(CNC(=O)c2ccc3nc(-c4ccc(F)cc4)c(-c4ccc(F)cc4)nc3c2)c1 | inactive: 125% |
| CC(=O)c1cccc(NC(=O)c2nc3ccccc3n(C)c2=O)c1 | inactive: 114% |
| COc1cc(C2c3c(-c4ccccc4O)n[nH]c3C(=O)N2CCO)ccc1OCc1ccccc1 (stereo not given) | inactive: 89% |
| CC(C)c1ccc(S(=O)(=O)c2nnn3c2nc(N2CCN(C)CC2)c2sccc23)cc1 | inactive: 76% |
| CCOC(=O)c1ccccc1NC(=O)c1c2c(nc3ccccc13)C(=O)N(C1CCCCC1)C2 | inactive: 78% |

| SMILES | survival |
| --- | --- |
| CCOc1ccc(CNC(=O)C2CCN(S(=O)(=O)N3CCC(C)CC3)CC2)cc1OC | inactive: 84% |
| CC1=C(C(=O)Nc2cccnc2)C(c2cccc(Br)c2)n2nc(SCc3ccccc3)nc2N1 (stereo not given) | inactive: 60% |
| COc1ccc(C(=O)Nc2nc3nc(C)c(Cc4ccccc4)c(=O)n3[nH]2)cc1OC | inactive: 95% |
| Cc1ccc(CNC(=O)COCc2cc(-c3cccs3)on2)cc1 | inactive: 88% |
| CCCn1c(SCc2nc3ccccc3[nH]2)nc2ccccc21 | inactive: 114% |
| CC(=O)c1cccc(NC(=O)CN2C=NS(=O)(=O)c3ccc(C)cc32)c1 | inactive: 71% |
| COc1cc(NC(=O)C2CCN(c3cnc4ccccc4n3)CC2)cc(OC)c1OC | active: -6% |
| CCCc1cc(=O)n2[nH]c(NC(=O)c3ccc(C(C)(C)C)cc3)nc2n1 | inactive: 114% |
| Cc1cccc(CNS(=O)(=O)c2ccc(-c3cnc(C4CC4)o3)cc2)c1 | inactive: 64% |
| CC1=C(C(=O)Nc2ccccc2C)C(c2ccncc2)n2nc(SCc3ccccc3Cl)nc2N1 (stereo not given) | inactive: 86% |
| c1cc(CNC2CCCCC2)co1 | inactive: 106% |
| CCn1c(=O)c2cc(C(=O)Nc3cc(OC)c(OC)c(OC)c3)sc2c2ccccc21 | inactive: 78% |
| Cn1ccc2cc(S(=O)(=O)N3CCCC(C(=O)NCc4ccccc4)C3)ccc21 (stereo not given) | inactive: 101% |
| Cc1cccc(-c2noc(-c3ccccc3NC(=O)C3CC(=O)N(c4ccccc4C)C3)n2)c1 (stereo not given) | inactive: 50% |
| Cc1cccc(NS(=O)(=O)c2ccccc2)n1 | inactive: 106% |
| COc1ccc(S(=O)(=O)Nc2cccc(-c3ccc(N4CCC(C)CC4)nn3)c2)cc1OC | inactive: 81% |
| Cc1cc(-c2ccc(C)c(S(=O)(=O)NC(c3cccs3)C(C)C)c2)on1 (stereo not given) | inactive: 70% |
| CC12CC(c3ccccc3O1)C(C(=O)NCc1ccccc1)C(=O)N2 (stereo not given) | inactive: 107% |
| O=C(COc1ccc(F)cc1)OCc1cc(=O)n2nc(C3CCCCC3)sc2n1 | inactive: 68% |
| COc1ccc(NC(=O)CCSc2nc(-c3ccc(OC)cc3)cc(C(F)(F)F)n2)cc1 | inactive: 77% |
| CC1(C)CC(=O)C2=C(C1)OC(N)=C(C#N)C21CCCCC1 | inactive: 111% |
| Cc1ccc(NC(=O)Cn2cc(C(=O)C3CC3)c3ccccc32)c(C)c1 | inactive: 93% |
| CC(C)CCNC(=O)c1ccc2c(c1)NC(=O)C(CS(=O)(=O)Cc1ccc(F)cc1)N2 (stereo not given) | inactive: 69% |

| SMILES | survival |
| --- | --- |
| CCc1nnc(SCc2c(F)cccc2Cl)c2cc3sccc3n12 | inactive: 88% |
| COc1ccc(C(C(=O)NCc2ccccc2)N(C(=O)Cn2nnc3ccccc32)c2cccc(OC)c2)cc1 (stereo not given) | inactive: 88% |
| CC1=C(C(=O)N2CCN(c3cc(C)ccc3C)CC2)C2(CCC(C)CC2)OC1=O (stereo not given) | inactive: 87% |
| O=S(=O)(NC1CCCC1)c1cccs1 | inactive: 118% |
| CCOc1ccc(NC(=O)C2(c3cccs3)CCOCC2)cc1 | inactive: 82% |
| Cc1cc(C)c2sc(NC(=O)c3ccc(S(=O)(=O)N4CCCC4)cc3)nc2c1 | inactive: 32% |
| CCOC(=O)c1cccc(NC(=O)CCc2nc3cccnc3n2-c2ccccc2)c1 | inactive: 130% |
| COc1ccccc1C(=O)Nc1nc2nc(C)cc(=O)n2[nH]1 | inactive: 86% |
| O=C(CN1C(=O)COc2ccc(S(=O)(=O)NC3CCCC3)cc21)Nc1ccc(Cl)cc1F | inactive: 71% |
| COc1ccc(OC)c(S(=O)(=O)Nc2ccc3c(c2)n(C)c(=O)n3C)c1 | inactive: 113% |
| CCOC(=O)c1c(C)oc2ccc(N(C(=O)c3ccncc3)S(=O)(=O)c3ccc(CC)cc3)cc12 | inactive: 79% |
| CN(C)N1C(=O)CC(NCc2ccccc2)C1=O (stereo not given) | inactive: 99% |
| CCOC(=O)c1c(C)[nH]c(CCC(=O)Nc2cc(Cl)ccc2OC)c1C | inactive: 74% |
| Cc1nc(N2CCOCC2)c2c(C(=O)NCc3ccc(Cl)cc3)c(C)oc2n1 | inactive: 94% |
| CN(C)S(=O)(=O)N(CC(=O)Nc1ccc(C(F)(F)F)cc1)c1ccccc1 | inactive: 82% |
| Cc1ccc(OCCSc2nc3ccc(NC(=O)c4cccs4)cc3s2)cc1 | inactive: 102% |
| COc1cc(OC)cc(C(=O)NCCc2csc3nc(-c4ccccc4F)nn23)c1 | inactive: 66% |
| Cc1sc(-n2cccc2)c(C(C)NC(=O)Nc2cccc(C(F)(F)F)c2)c1C (stereo not given) | active: 6% |
| COc1ccc(C(=O)Oc2ccc3oc(=O)sc3c2)cc1 | inactive: 95% |
| Cc1ccc(S(=O)(=O)N2CC=C(c3c(C)n(CC(=O)N4CCCC4)c4ccccc34)CC2)cc1C | inactive: 81% |
| COc1cccc(CNC(=O)c2cc(-c3ccc(Cl)cc3)n[nH]2)c1 | inactive: 136% |
